{
  "source": "PubChem BioAssay AID1240",
  "about": "(Sanford-Burnham Center for Chemical Genomics, 2008)",
  "note": "About 800 (1.6%) of roughly 50,000 compounds showed an effect of 50% or more. Some of the results follow.",
  "data": [
    {"biological_target": "Bcl-2-like protein 10 (Homo sapiens) (UniProt Q9HD36)", "sequence (Q9HD36 whole entry, looked up)": "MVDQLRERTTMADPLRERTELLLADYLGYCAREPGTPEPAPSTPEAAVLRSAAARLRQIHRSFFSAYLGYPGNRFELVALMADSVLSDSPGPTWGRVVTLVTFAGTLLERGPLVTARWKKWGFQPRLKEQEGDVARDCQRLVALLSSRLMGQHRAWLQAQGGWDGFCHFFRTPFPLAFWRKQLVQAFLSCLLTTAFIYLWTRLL", "assay": "TR3 peptide-Bcl-B binding displacers, biochemical primary FP assay, phenotype converters (AID 1240);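 further: 0% = Bcl-B with tracer peptide and DMSO and 100% = tracer peptide lacking Bcl-B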", "settings": "GST-Bcl-B / FITC-TR3 peptide fluorescence polarization; stronger effect = higher value; compound at 3.75 mg/L", "units": {"displacement": "%"}, "values": [
      {"smiles": "Cn1c(=O)cc(Nc2ccc(Cl)cc2)[nH]c1=O", "displacement": -1.1},
      {"smiles": "NC1=NC(=O)CC(C(=O)Nc2cccc([N+](=O)[O-])c2)S1", "note": "(stereo not given)", "displacement": 0.3},
      {"smiles": "O=CNC(NC(=S)Nc1cc(Cl)ccc1Cl)C(Cl)(Cl)Cl", "note": "(stereo not given)", "displacement": -13.9},
      {"smiles": "CCOC(=O)c1c[nH]c2c(Cl)cc(Cl)cc2c1=O", "displacement": -2.7},
      {"smiles": "Cc1cccc(N2C(=O)C(=O)/C(=C(\\O)c3ccccc3)C2c2ccccc2F)c1", "note": "(stereo not given)", "displacement": 4.4},
      {"smiles": "O=c1[nH]c(=S)n(-c2ccccc2)c(O)c1/C=C1\\C=Nc2ccccc21", "displacement": 7.9},
      {"smiles": "Fc1ccc(-c2ccc(/C=N/n3cnnc3)o2)cc1", "displacement": 7.8},
      {"smiles": "COc1ccc(NC(=O)c2cc3cc(Br)ccc3oc2=O)c(OC)c1", "displacement": -4.7},
      {"smiles": "O=C(Cc1ccccc1)NC1(Cc2ccc(O)cc2)CCCCC1", "displacement": -3.3},
      {"smiles": "O=S1(=O)CCC(Nc2ccccc2)C1", "note": "(stereo not given)", "displacement": 0.9},
      {"smiles": "O=C(Nc1ccccc1)C1C(c2ccccc2)=C1c1ccccc1", "displacement": 0},
      {"smiles": "O=C(CN1C(=O)/C(=C/c2ccccc2Cl)SC1=S)N1CCOCC1", "displacement": -6.4},
      {"smiles": "Nc1nnc(SCC(=O)Nc2ccc(Cl)c(Cl)c2)s1", "displacement": 1.8},
      {"smiles": "O=C(c1cccs1)N1CCN(Cc2ccc(Cl)cc2)CC1", "displacement": -14.9},
      {"smiles": "CCOc1ccccc1C(=O)NCCc1nc2ccccc2[nH]1", "displacement": 4.7},
      {"smiles": "O=C1NC(=S)N(c2ccccc2)C(=O)/C1=C/c1ccc(OCc2ccc(Cl)cc2)cc1", "displacement": 6.1},
      {"smiles": "COc1cccc(NS(=O)(=O)c2ccc(OC)c(Br)c2)c1", "displacement": -4.6},
      {"smiles": "Cn1cccc1CN1CCN(C(=O)c2ccccc2F)CC1", "displacement": -5.4},
      {"smiles": "CC(C)CC(NC(=O)OC(C)(C)C)C(=O)O", "note": "(stereo not given)", "displacement": -2.3},
      {"smiles": "Cn1nnnc1SCC(=O)Nc1ccc2c(c1)oc1ccccc12", "displacement": 87},
      {"smiles": "CCOC(=O)c1cc(C2CC2)nc2ccccc12", "displacement": -5.3},
      {"smiles": "COc1ccc(NC(=O)Cc2ccc(Br)cc2)c([N+](=O)[O-])c1", "displacement": -2.5},
      {"smiles": "CC(=O)c1ccc(NC(=O)CSc2nc3ccc([N+](=O)[O-])cc3s2)cc1", "displacement": 9.4},
      {"smiles": "O=C(/C=C/c1ccccc1F)c1c(-c2ccccc2)c2cc(Br)ccc2[nH]c1=O", "displacement": 6.3},
      {"smiles": "CN(C)Cn1c(O)c(N=NC(=O)c2ccncc2)c2ccccc21", "displacement": -3},
      {"smiles": "CCOC(=O)c1nc2nc(-c3cccs3)cc(C(F)(F)F)n2n1", "displacement": 16.4},
      {"smiles": "CC(O)c1nc2ccccc2n1Cc1ccccc1", "note": "(stereo not given)", "displacement": -0.5},
      {"smiles": "NC(=O)c1cc(NC(=O)c2ccc(Cl)c(Cl)c2)ccc1Cl", "displacement": 19.9},
      {"smiles": "O=C(O)CN1C(=O)C2CC=CCC2C1=O", "note": "(stereo not given)", "displacement": -3.5},
      {"smiles": "Brc1ccc(-c2nc(-c3ccccc3)nc(-c3ccccc3)n2)cc1", "displacement": 2.5},
      {"smiles": "C=CCc1ccc(OC(=O)NC2CCCCC2)c(OC)c1", "displacement": 7.5},
      {"smiles": "O=C(NCc1ccc2c(c1)OCO2)c1ccc(C#Cc2ccccc2)cc1", "displacement": -1},
      {"smiles": "CCOC(=O)c1ccc(NS(=O)(=O)c2ccc(C)c([N+](=O)[O-])c2)cc1", "displacement": 12.5},
      {"smiles": "Cc1ccc2[nH]c(C(=O)N/N=C/c3ccc4c(c3)OCO4)c(-c3ccccc3)c2c1", "displacement": -13.9},
      {"smiles": "Cc1ccc(-c2csc(NC(=O)C3CC=CCC3C(=O)O)n2)cc1", "note": "(stereo not given)", "displacement": 1.8},
      {"smiles": "O=C(/C=C/c1ccc(Cl)cc1)Nc1ccc(I)cc1Cl", "displacement": 6.8},
      {"smiles": "CC(C)COc1ccc(C(=O)Nc2ccc(N3CCOCC3)c(Cl)c2)cc1", "displacement": 14.4},
      {"smiles": "CC(C)CCOC(=O)c1n[nH]c([N+](=O)[O-])c1[N+](=O)[O-]", "displacement": -8.5},
      {"smiles": "O=C1c2ccc(S(=O)(=O)c3ccc4c(c3)C(=O)N(c3nccs3)C4=O)cc2C(=O)N1c1nccs1", "displacement": 4.6},
      {"smiles": "COc1c(F)c(F)c(-c2c(F)c(F)c(OC)c(F)c2F)c(F)c1F", "displacement": 11.2},
      {"smiles": "COc1ccc(NC(=O)C(=O)NCCO)cc1Cl", "displacement": 4.9},
      {"smiles": "COc1ccc(/C=C2/SC(=O)N(CC(=O)Nc3ccc(C)c(C)c3)C2=O)cc1OC", "displacement": 67},
      {"smiles": "COc1ccc(S(=O)(=O)N(CC(=O)NCC2CCCO2)Cc2ccccc2)cc1", "note": "(stereo not given)", "displacement": 13.6},
      {"smiles": "Cc1ccc(NC(=O)c2c(-c3ccccc3)noc2C)cc1Cl", "displacement": -1.5},
      {"smiles": "OC(C#CC12CC3CC(CC(C3)C1)C2)c1cccnc1", "note": "(stereo not given)", "displacement": -10.7},
      {"smiles": "c1ccc(NCc2ccc3c(c2)OCO3)cc1", "displacement": 6.8},
      {"smiles": "CCCCCCOc1ccc(N2C(=O)CC(NCCc3ccc(OC)c(OC)c3)C2=O)cc1", "note": "(stereo not given)", "displacement": -11.9},
      {"smiles": "COC(=O)Cn1cc(/C=C2\\C(=O)NC(=O)N(c3cccc(F)c3)C2=O)c2ccccc21", "displacement": 35.8},
      {"smiles": "COC(=O)c1c(-c2ccccc2)csc1NC(=O)CCCC(=O)O", "displacement": 7.6},
      {"smiles": "CCOC(=O)C1=C(C)N(C)C(=O)NC1c1ccc(Cl)c(Cl)c1", "note": "(stereo not given)", "displacement": 7.8},
      {"smiles": "COc1cc(/C=N\\Nc2nnc(C)c(=O)[nH]2)cc(Br)c1O", "displacement": -5.2},
      {"smiles": "COc1ccc(S(=O)(=O)N2CCN(Cc3cccc(C)c3)CC2)cc1", "displacement": 2.5},
      {"smiles": "CCCCOc1ccc(NC(=O)c2ccncc2)cc1", "displacement": 12.7},
      {"smiles": "COC(=O)c1ccc(C(=O)OC)c(NC(=O)COc2cccc(Br)c2)c1", "displacement": 27},
      {"smiles": "CCOC(=O)C1=C(C)N=c2s/c(=C\\c3cc(OC)ccc3OC)c(=O)n2C1c1ccc(F)cc1", "note": "(stereo not given)", "displacement": 12.9}
    ]}
  ]
}
